Experimental data taken from the RNAGym collection of RNA variant scans (doi:10.7554/elife.90254).
Read counts are not given, so values of variants with three or more changes are uncertain.

B1: LINE1-full (parent)
chain: UACGUAGGUGGUUUUCCCCUGAUAGUGCUAAGGGGGCCUGGAAGUUUGGACUGGGCAGAGCUCAACACAGCGUGGCAAAGUGGCUGUGGCUAGACUGCCUCUCUGGAUUCCUCGUCACUCAGCAGGGCAUCUCUGAGAGAAAUGCC

Variants of: B1
Assay: self-cleavage, relative activity (ratio to wild type); higher = more cleavage; in vitro, sequencing; the parent is a self-cleaving ribozyme

**Q.** With UACGUAGGUGGUUUUCCCCUGAUAGUGCUAAGGGGGCCUGGAAGUUUGGACUGGGCAGAGCACAACACAGCGUGGCAAAGCGGCUGUGGCUAGACUGCCUCUCUGGAUUCCUCGUCACUCAGCAGGGCAUCUCUGAGAGAGAUGCC [U62A U81C A141G] as the variant, how does the self-cleavage read?
**A.** 0

**Q.** With UACGUAGGUGGUUUUCCCCUGAUAGUGCUAAGGGGGCCUGGAAGUUUGGACUGGGCAGAGCACAACACAGCGUGGCAAAGUGGCAGUGGCUAGACUGCCUCUCUGGACUCCUCGUCACUCAGCAGGGCAUCUCUGAGGGAAAUGCC [U62A U85A U108C A138G] as the variant, how does the self-cleavage read?
**A.** 0

**Q.** With UACGUAGGUGGUUUUCCCCUGAUAGUGCUAAGGGGGCCUGGAAGUUUGGACUGGGCAGAGCACAACACAGCGUGGCAAAGUGGCCGUGGCUAGACUGCCUCUCUGGGUUCCUCGUCACUCAGCAGGGCAUCUCUGAGAGAAAUGCC [U62A U85C A107G] as the variant, how does the self-cleavage read?
**A.** 0

**Q.** Which self-cleavage does the source give for UACGUAGGUGGUUUUCCCCUGAUAGUGCUAAGGGGGCCUGGAAGUUUGGACUGGGCAGAGCACAACACAGCGUGGCAAAGUGGCUGUGGCCAGACUGCCUCUCUGGAUUCCACGUCACUCAGCAGGGCAUCUCUGAGAGAAAUGCC [U62A U91C U112A] here?
**A.** 0.12

**Q.** Which self-cleavage does the source give for UACGUAGGUGGUUUUCCCCUGAUAGUGCUAAGGGGGCCUGGAAGUUUGGACUGGGCAGAGCACAACACAGCGUGGCAAAGUGGCUGUGGCUAGACAGCCUCUCUGGACUCCUCGUCACUCAGCAGGGCAUCUCUGAGAGAAAUGCC [U62A U96A U108C] here?
**A.** 0.07

**Q.** With UACGUAGGUGGUUUUCCCCUGAUAGUGCUAAGGGGGCCUGGAAGUUUGGACUGGGCAGAGCACAACACAGCGUGGCAAAGUGGCUGUGGCUAGACCGCCUCUCAGGAUUCCUCGUCACUCAGCAGGGCAUCUCUGAGAGAAAUGCC [U62A U96C U104A] as the variant, how does the self-cleavage read?
**A.** 0.04

**Q.** With UACGUAGGUGGUUUUCCCCUGAUAGUGCUAAGGGGGCCUGGAAGUUUGGACUGGGCAGAGCACAACACAGCGUGGCAAAGUGGCUGUGGCUAGACUGCCCCUCUGGAUGCCUCGUCACUCAGCAGGGCAUCUCCGAGAGAAGUGCC [U62A U100C U109G U134C A142G] as the variant, how does the self-cleavage read?
**A.** 0

**Q.** For UACGUAGGUGGUUUUCCCCUGAUAGUGCUAAGGGGGCCUGGAAGUUUGGACUGGGCAGAGCACAACACAGCGUGGCAAAGUGGCUGUGGCUAGACUGCCUCUCUGGAUCCCUAGUCACUCAGCAGGGCGUCUCUGAGAGGAAUGCC [U62A U109C C113A A129G A140G], which self-cleavage is on record?
**A.** 0.01

**Q.** With UACGUAGGUGGUUUUCCCCUGAUAGUGCUAAGGGGGCCUGGAAGUUUGGACUGGGCAGAGCACAACACAGCGUGGCAAAGUGGCUGUGGCUAGACUGCCUCUCUGGAUUCCUCGCCACUCAGCAGGGCGUCUCUGAGAGAAAUGCC [U62A U115C A129G] as the variant, how does the self-cleavage read?
**A.** 0.07

**Q.** Which self-cleavage does the source give for UACGUAGGUGGUUUUCCCCUGAUAGUGCUAAGGGGGCCUGGAAGUUUGGACUGGGCAGAGCACAACACAGCGUGGCAAAGUGGCUGUGGCUAGACUGCCUCUCUGGAUUCCUCGUCACCCAGCAGGGCAUCUCUGGGAGAAAUGCC [U62A U119C A136G] here?
**A.** 0.02

**Q.** With UACGUAGGUGGUUUUCCCCUGAUAGUGCUAAGGGGGCCUGGAAGUUUGGACUGGGCAGAGCACAACACAGCGUGGCAAAGUGGCUGUGGCUAGACUGCCUCUCUGGAUUCCUCGUCACUCAGCAGGGCAUCCCCGAGAGAAAUGCC [U62A U132C U134C] as the variant, how does the self-cleavage read?
**A.** 0.11

**Q.** Which self-cleavage does the source give for UACGUAGGUGGUUUUCCCCUGAUAGUGCUAAGGGGGCCUGGAAGUUUGGACUGGGCAGAGCCCGACACAGCGUGGCAAAGUGGCUGUGGCUAGACUGCCUCUCUGGAUUCCUCGUCACUCUGCAGGGCAUCCCUGAGAGAAAUGCC [U62C A64G A121U U132C] here?
**A.** 0.14

**Q.** Which self-cleavage does the source give for UACGUAGGUGGUUUUCCCCUGAUAGUGCUAAGGGGGCCUGGAAGUUUGGACUGGGCAGAGCCCUACGCAGCGUGGCAAAGUGGCUGUGGCUAGACUGCCUCCAUGGAUUCCUCGUCACUCAGCAGGGCAUCUCUGAGAGAGAUGCC [U62C A64U A67G U102C C103A A141G] here?
**A.** 0.14

**Q.** With UACGUAGGUGGUUUUCCCCUGAUAGUGCUAAGGGGGCCUGGAAGUUUGGACUGGGCAGAGCCCUACACAGCGUGGCAAAGUGGCUGUGGCUAGACUGCCUCUCUGGAUUCCUCGUCACUCAGCAGGGCAUCUCUGAGGGAAAUGCC [U62C A64U A138G] as the variant, how does the self-cleavage read?
**A.** 0.04

**Q.** With UACGUAGGUGGUUUUCCCCUGAUAGUGCUAAGGGGGCCUGGAAGUUUGGACUGGGCAGAGCCCAACGCAGCGUGGCGAAGUGGCUGUGGCUAGACUGCCUCUCUGGAUUCCUCGUCACUCAGCAGGGCAUCUCUGAGAGAAAUGCC [U62C A67G A77G] as the variant, how does the self-cleavage read?
**A.** 0

**Q.** With UACGUAGGUGGUUUUCCCCUGAUAGUGCUAAGGGGGCCUGGAAGUUUGGACUGGGCAGAGCCCAACUCAGCGUGGCAGAGUGGCUGUGGCUAGACUGCCUCUCUGGAUUCCUCGUCACUCAGCAGGGCAUCUCUGAGAGAAAUGCC [U62C A67U A78G] as the variant, how does the self-cleavage read?
**A.** 0.13

**Q.** Which self-cleavage does the source give for UACGUAGGUGGUUUUCCCCUGAUAGUGCUAAGGGGGCCUGGAAGUUUGGACUGGGCAGAGCCCAACUCAGCGAGGCAAAGCGGUUGUGGCUAGACUGCCUCUCUGGAUUCCUCGUCACUCAGCAGGGCAUCUCUGAGAGAAAUGCC [U62C A67U U73A U81C C84U] here?
**A.** 0.08

**Q.** For UACGUAGGUGGUUUUCCCCUGAUAGUGCUAAGGGGGCCUGGAAGUUUGGACUGGGCAGAGCCCAACACGGCGUGGCAAAGUGGCUGUGGCUAGACUGCCUCUCUGGAUUCCUCGUCACUCAGCAGGGCGUCUCUGAGAGAAAUGCC [U62C A69G A129G], which self-cleavage is on record?
**A.** 0.17

**Q.** For UACGUAGGUGGUUUUCCCCUGAUAGUGCUAAGGGGGCCUGGAAGUUUGGACUGGGCAGAGCCCAACACUGCGUGGCAAAGUGGCUGUGGCUAGACUGCCUCUCUGGAUUCCUCGUCCCUCAGCAGGGCAUCUCUGAGAGAGAUGCC [U62C A69U A117C A141G], which self-cleavage is on record?
**A.** 0

**Q.** Which self-cleavage does the source give for UACGUAGGUGGUUUUCCCCUGAUAGUGCUAAGGGGGCCUGGAAGUUUGGACUGGGCAGAGCCCAACACAGCGUGGCCAAGUGGCUGUGGCUAGACCGCCUCUCUGGAUUCCUCGUCACUCAGCAGGGCAUCUCUGAGAGAAAUGCC [U62C A77C U96C] here?
**A.** 0.15
